Data as given in the RNAGym collection of RNA variant scans (doi:10.7554/elife.90254).
The source gives no read counts; variants with many changes may rest on few reads.

B1: LINE1-mini (parent)
chain: GGCAGAGCUCAACACAGCGUGGCAAAGUGGCUGUGGCUAGACUGCC

Variants of: B1
Assay: self-cleavage, relative activity (ratio to wild type); higher = more cleavage; in vitro, sequencing; the parent is a self-cleaving ribozyme

Variant	self-cleavage
G5A G7A C18A G27A	0.36
G5A A12C A16G G17U C18U	0.02
G5A U20C G21A C23U G33C G44U	0.04
G5A C10A C15U C18A G29C G40C	0.06
G5A A12C G21C	0.07
G5A G19A G35U G36C	0.07
G5A U9C A16U G29U C31A G36C G44U	0.1
G5A C18A G19U G22A C45A	0.16
G5A C8U G17U C18A U20C A26C U38C G44A C46A	0.14
G5A A26C G30A C37U G40C G44A	0.07
G5A A11U C23U A25C A26C U28G C42G	0
G5A U9G U20C G27C A39U	0.08
G5A A14U C23U U32G U34C	0.7
G5A G29U G44U C46A	0.09
G5A G21U C42G	0.22
G5A C8U C18A A26C U28C C31G	0.01
G5A G22A U38G C45U	0.02
G5A G21U C46G	0.18
G5A C13U G36C U38A	0.06
G5A G35C A39U	0.12
G5A G17A G33A	0.07
G5A G19A U28G A39U G44A	0.05
G5A A24U G35A	0.03
G5A C15G C18A G36U	0.02

Variant	self-cleavage
G5A U9G G22A	0.01
G5A C8G G19C G22C G35U U38G	0.02
G5A U9A U34C	0.3
G5A C8A U9G U34A C37G	0.68
G5A A25G A39G A41C U43C	0.04
G5A C10G U38C	0.01
G5A U9A A14G C15G A25C U38A A39C	0.07
G5A G19U G21A U28G C45A	0.02
G5A A25C G35U	0.16
G5A C8A C15A C31G C46G	0.45
G5A G21U A24U A26G C46U	0.03
G5A G7C C18U G33C	0.06
G5A C18G G22U	0.07
G5A G17C G35U	0.03
G5A A24C G30C	0.05
G5A C13A G35A C42U G44U	0.4
G5A G21U A39G C46G	0.05
G5A C10U C31U U32G G35U	0.19
G5A U9C C31A	0.02
G5A C8A C10G G27C	0.02
G5A C23A G36C	0.21
G5A G7A G40U	0.71
G5A G7C U38A	0.05
G5A C18A C23U	0.1

Variant	self-cleavage
G5A C18G U34C G40U U43A	0.01
G5A C31G U32G	0.09
G5A C31A C42A	0.05
G5A C8A G40U	2.94
G5A C8U U9A	0.38
G5A C15G A41U	0.07
G5A A16U C45G	0.04
G5A U9G A39G	0.18
G5A U9G G21C	0.05
G5A C8A A16U C18U C42U	0.21
G5A A12C G22A G33U	0.02
G5A C18A G22A C23U A24G U43G	0.03
G5A G17C G33A	0.03
G5A C10A C15A A25G G27C C42A C46U	0.05
G5A G19A U38G A39C	0
G5A C23A G44U	0.04
G5A C37A C45A	0.19
G5A C10U C13G G17C A25G	0.05
G5A C8U C10A	0.01
G5A C8U C18U C23U A25U G29A	0.09
G5A C10U U28A C46U	0.06
G5A C15A A24U	0.05
G5A C18U A41G	0.04
G5A C10A A12G G29U	0.01

Variant	self-cleavage
G5A G27A G30U	0.57
G5A A24U G29U	0.13
G5A C23A U28C U38A	0.01
G5A U20A C31A	0.01
G5A C8A A12C	0.15
G5A G17A G35C U38C	0.06
G5A A11U U20A U32G U38G	0.01
G5A C10G G29C	0.04
G5A C15U G44U	0.13
G5A A25G G36U C37G	0.01
G5A G7C G17A U32A A39G C46G	0.04
G5A C10A G22A G33C C46A	0.04
G5A C8U U9A G17C G19A G27U G30C U43A G44U	0.18
G5A C10U G29C	0.06
G5A G7U G33U	0.15
G5A C8G A26C G30U U34G	0.07
G5A G35C C37A C42A C45A	0.16
G5A G7C G33U	0.1
G5A C13A G21C G35C C45A	0.36
G5A C10U G29C G30A	0.04
G5A U20G G33C	0.04
G5A A11U G27A G40A	0.02
G5A G27C G40U	0.06
G5A A24G G33U	0.07

Variant	self-cleavage
G5A C15G C18A C37A U43A	0.01
G5A C31A G44A	0.03
G5A C18U C23U	0.12
G5A G17U A25C	0.08
G5A C18U A26U G33C A39C	0.03
G5A C13G G30A C46G	0.05
G5A C8A C10A G30C G33U	0.05
G5A C31A G35A C37A	0.12
G5A C31G G36C	0.04
G5A G40U U43A	0.07
G5A G27U A39C	0.03
G5A G29U G40A C46U	0.04
G5A G27U C42G	0.04
G5A A24U U28A	0.03
G5A C13A G29C	0.03
G5A C10A U43C	0.01
G5A C10A A11G C15G A25G	0.01
G5A C18A G35U	0.1
G5A G7U C37A	0.31
G5A C10A A11G G21U C42U	0.02
G5A G27A U28G	0.3
G5A A12C U43C	0.04
G5A G44U C46U	0.03
G5A G21C C46A	0.19

Variant	self-cleavage
G5A C8U A14U C42G	0.33
G5A C10U C46U	0.14
G5A U9A C15U C42A	0.63
G5A C23A G35U	0.17
G5A C15U A16C G27U	0.07
G5A G19A C23A G29C	0.04
G5A C13U U20A G33C	0.04
G5A G27U G29C G35U C45U	0.41
G5A C15G C37U	0.09
G5A G17U A25G G27C U32G G40C	0.04
G5A C15A C46A	0
G5A A25C G36A G40C	0.08
G5A C8A G17C U20C G27A	0.34
G5A G35C G44C	0.04
G5A C18A G19A U20A U28C G30U	0.1
G5A G30U U32G G36C U38A A41U	0.02
G5A G22U C23G C46A	0.05
G5A C8A U9G G19C C23U G36U C45G	0.33
G5A A24U U34A U38G	0.04
G5A C10G A16U G27A G36U G40A U43G	0.01
G5A G27U G44U	0.04
G5A G7A G17U	0.3
G5A G7U C10G C18U A41C	0.01
G5A A24U G36A C45U	0.08

Variant	self-cleavage
G5A U20A G40A	0.02
G5A G30U G35A	0.09
G5A C15U G27A G33A	0.03
G5A C31U C42A	0.04
G5A C15A G30A C42A	0.03
G5A C18A G19A	0.1
G5A C15U G17A G29C	0.04
G5A A26U U28A	0.02
G5A G21C G30U C37G	0.05
G5A C13G U43A	0.04
G5A G7A U9C C15A G21U U32A	0.02
G5A A12C G17U A25U G35U	0.01
G5A C13G A14G C15G	0.05
G5A G22A G40A	0.1
G5A A12U G35A C42A	0.09
G5A G7U C8U U34G	0.87
G5A C8G C13G G17A G22U G30U	0.01
G5A C18A G19C G30A	0.23
G5A A14G U32G C42A	0.03
G5A A16C C37A U43C	0.02
G5A G17C A26U U28G	0.06
G5A U9A A11U A25C G30U	0.03
G5A U9A A11C A16C C31U U34C	0.01
